The record followed here is the supplement of paper PMC3334620.

In all, about 33,000 sequences were measured (“E-score (-0.5 to 0.5)”: median about -0.043, highest 2% from about 0.37 on). This is one part of the list.

The target of this assay is T1, Upc2 (UniProt Q12151).
T1 sequence: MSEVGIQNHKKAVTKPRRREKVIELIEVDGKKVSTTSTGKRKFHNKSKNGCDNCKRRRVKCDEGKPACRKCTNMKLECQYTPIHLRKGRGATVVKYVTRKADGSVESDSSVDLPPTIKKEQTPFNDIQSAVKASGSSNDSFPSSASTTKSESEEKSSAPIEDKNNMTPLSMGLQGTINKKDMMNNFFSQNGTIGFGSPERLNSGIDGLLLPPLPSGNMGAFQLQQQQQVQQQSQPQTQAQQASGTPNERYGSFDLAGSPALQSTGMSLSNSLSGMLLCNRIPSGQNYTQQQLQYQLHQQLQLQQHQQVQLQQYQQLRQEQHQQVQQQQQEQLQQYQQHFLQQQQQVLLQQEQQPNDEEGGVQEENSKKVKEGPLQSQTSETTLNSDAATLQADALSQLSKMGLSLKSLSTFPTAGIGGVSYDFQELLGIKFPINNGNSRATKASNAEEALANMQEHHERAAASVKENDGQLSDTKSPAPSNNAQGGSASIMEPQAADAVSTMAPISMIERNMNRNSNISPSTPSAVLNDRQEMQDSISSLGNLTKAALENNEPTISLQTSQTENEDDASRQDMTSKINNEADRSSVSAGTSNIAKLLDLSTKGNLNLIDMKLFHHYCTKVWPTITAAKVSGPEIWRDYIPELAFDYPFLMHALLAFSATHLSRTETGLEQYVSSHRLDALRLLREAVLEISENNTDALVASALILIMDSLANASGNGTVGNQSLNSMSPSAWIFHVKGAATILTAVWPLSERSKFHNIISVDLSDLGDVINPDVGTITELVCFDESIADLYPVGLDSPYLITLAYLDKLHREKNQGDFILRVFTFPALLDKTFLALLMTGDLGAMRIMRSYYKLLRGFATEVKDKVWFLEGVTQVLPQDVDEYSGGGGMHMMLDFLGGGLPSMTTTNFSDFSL
Description: PBM E-score (8-mer binding enrichment) (E-score (-0.5 to 0.5)); higher = stronger / more preferred TF binding; most listed sequences are background and not binding sites. The settings on record: protein concentration: 200 nM; construct: GST-full length. Summed up: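 Full-length yeast transcription factors or their DNA-binding domains, GST-tagged and expressed with PURExpress, were applied at about 100-200 nM to universal all-10-mer Agilent arrays. These arrays had been made double-stranded by primer extension on fresh or once-stripped slides. Detection used fluorescent anti-GST, normalisation used masliner, and E-scores for ungapped eight-base words pooled with reverse complements came from the Universal PBM Analysis Suite.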
As for AACGCGGC, the “PBM E-score” value was found to be 0.319. Regarding CGGTCTTC, the “PBM E-score” value is -0.117.

Consider GTGATCGA, for which the “PBM E-score” value came out at 0.0617. With GTACGCCA, the “PBM E-score” value was determined as 0.196. Turning to CTGACTAC, the “PBM E-score” value was -0.237. Consider ACTAAACG, for which the “PBM E-score” value worked out at 0.463.

As to GAGAGCTA, the “PBM E-score” value is 0.0363. As to AACGACGA, the “PBM E-score” value worked out at 0.454.

GAAGATGA: the “PBM E-score” value was -0.155. Take ACCGTACA: the “PBM E-score” value is 0.39.

As for ACTCAACG, the “PBM E-score” value is 0.224. For the sequence ACGGCGCT, the “PBM E-score” value was 0.124. As for ACTTAAGG, the figure is -0.103; as for ATAGGTGG, -0.00379. Regarding ATTGACCC, the “PBM E-score” value turned out to be 0.0573. Regarding AACAAGGG, the “PBM E-score” value was -0.101. With ATATTTCA, the “PBM E-score” value was 0.0314. As for CTCCCAAA, the “PBM E-score” value was -0.0646. AAGATCTG: the “PBM E-score” value is -0.18. As for CGCATCAA, the figure is -0.0159; as for AAAATGGT, 0.0385. AAACAAAC: the “PBM E-score” value was 0.135. As to GGCTCATA, the “PBM E-score” value was 0.033. Take CATTCCGA: the “PBM E-score” value amounted to 0.043. As for CTGATAGC, the figure is -0.0769; as for CAAATCAG, -0.165.

For the sequence GGGGCCCA, the “PBM E-score” value is -0.0784. Turning to TACGACGA, the “PBM E-score” value came out at 0.465. As for ACCCCAAA, the “PBM E-score” value stood at 0.0409. Regarding CCTAAATA, the “PBM E-score” value was -0.0402. AGCACCTC: the “PBM E-score” value was -0.144. With TTATAGAA, the “PBM E-score” value was found to be 0.0942. The result for CGCCACAG reads -0.274. Turning to AGGCCCAA, the “PBM E-score” value is -0.125. With CCGAAATA, the “PBM E-score” value came to 0.184. For the sequence CCTGTTTC, the “PBM E-score” value was -0.186.

Take ATTGAAAG: the “PBM E-score” value was -0.164. The result for AGCAGTCA reads -0.105; that for TGTAGGAA, -0.0273; that for ATGTCCTA, 0.0227. For ACATCCCT, the “PBM E-score” value is -0.171. For the sequence AAATACCG, the “PBM E-score” value came to 0.128.

As to CACGTCCC, the “PBM E-score” value is -0.164. Turning to AGGTTGAA, the “PBM E-score” value amounted to 0.084. Regarding AAGAGCTG, the “PBM E-score” value was -0.149.

Consider TATCGGGA, for which the “PBM E-score” value amounted to 0.0327. Regarding AGTTAGTG, the “PBM E-score” value is -0.168. AAATAGAT: the “PBM E-score” value is 0.132. As for TGCCAACA, the figure is -0.0697; as for AAACCGTG, 0.00463; as for ACTTTTGG, -0.134.

Take TATCCATA: the “PBM E-score” value worked out at 0.2. With CCTGCAGC, the “PBM E-score” value came to 0.0242.

As to CCGTTACA, the “PBM E-score” value came to 0.0637. GCCGCATA: the “PBM E-score” value is 0.217.

AACTTCTG: the “PBM E-score” value is -0.0773.

With CCGCGTAC, the “PBM E-score” value is 0.324. With ACCGACGC, the “PBM E-score” value is 0.161. As to CCAAGGGA, the “PBM E-score” value was -0.11.

With CACGGCGA, the “PBM E-score” value was -0.0525. In the case of CCTTCACA, the “PBM E-score” value was -0.0972. Regarding CTGACGGA, the “PBM E-score” value is -0.216.

Turning to ACACCAAG, the “PBM E-score” value was -0.0367.

Take AATCGAGC: the “PBM E-score” value came out at 0.286. As for GGTGTTCA, the figure is 0.00797; as for AGCAGCAT, -0.0616; as for CGAGCTGA, 0.196. Turning to AGGTGACC, the “PBM E-score” value is -0.281. For the sequence ACTACTCC, the “PBM E-score” value was -0.0816. Take GATGTATA: the “PBM E-score” value was -0.0388. On to TCCTGGAA, for which the “PBM E-score” value is -0.144. Take CCCACACC: the “PBM E-score” value is -0.0498. Turning to CTAGCGTA, the “PBM E-score” value turned out to be 0.103. AGACTAGC: the “PBM E-score” value is -0.205.

Take AAGTTGCT: the “PBM E-score” value is -0.00267. On to GTACCTAC, for which the “PBM E-score” value was determined as 0.0442. As for ACCTGTTA, the figure is 0.0801; as for CTCACCGA, -0.0555. The result for ACTTTTGC reads 0.0781; that for GGACACTA, -0.118.

Regarding ACACCCAA, the “PBM E-score” value is -0.0152. On to AGTATCGA, for which the “PBM E-score” value stood at 0.00655.

For the sequence AGGCATTG, the “PBM E-score” value was found to be 0.0865. As for CGACAGCG, the “PBM E-score” value is 0.133. TACGAATA: the “PBM E-score” value is 0.415. For ACAGGACA, the “PBM E-score” value turned out to be 0.0482.
